Laboratory results: PubChem BioAssay (Tox21)
The shares of active, inactive and inconclusive entries below differ from those in the screen. For part of these data: Potencies beside an inconclusive call are fits to weak or partial responses and may not hold up. Activity calls are given as the source filed them. Unless noted, calls come from the whole dose curve; as a rule, active = well fitted curve in the direction sought with a large enough effect in the repeat runs; inconclusive = weak or mixed curves; inactive = no such curve, though single readings can be large; an effect the other way counts as inactive or inconclusive.

Legend:
[1] = qHTS assay for small molecule agonists of the antioxidant response element (ARE) signaling pathway (AID 743202; active = well fitted activation curve with a large enough effect in the signal ratio in the repeat runs, not every such curve was filed as active; inconclusive = weak or mixed curves, or effect the other way; inactive = no such curve, though single readings can be large or run the other way; the % refers to the signal ratio; note: potency is the fitted concentration of half-maximal effect); conditions: HepG2 ARE-bla reporter, beta-lactamase FRET, 16 h; activation: at 73.3 µM (top of the series) unless noted
Method in brief: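 ARE-bla HepG2 cells (beta-lactamase reporter under the antioxidant response element), plated 5 hours, then exposed to compounds 16 hours at 37 C. LiveBLAzer B/G FRET substrate added for 2 hours at room temperature; fluorescence intensity read.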

[2] = qHTS assay to identify small molecule antagonists of the peroxisome proliferator-activated receptor delta (PPARd) signaling pathway - cell viability counter screen (AID 743213); conditions: PPARd-bla HEK293H viability, CellTiter-Glo luminescence, 17 h; viability change, negative = cytotoxic: at 62 µM (top of the series) unless noted; note: nearly all actives have a fitted effect of over 50% in size; note: potency is the fitted concentration of half-maximal effect
Method in brief: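 PPARd-bla HEK293H cells (3000/well) got compound plus 300 nM L165041 agonist for 17 h at 37 C. Viability in the same wells came from CellTiter-Glo luminescence after 30 min at room temperature.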

[3] = qHTS assay to identify small molecule agonists of the farnesoid-X-receptor (FXR) signaling pathway - cell viability counter screen (AID 743218); conditions: FXR-bla HEK293T viability, CellTiter-Glo luminescence, 16 h; viability change, negative = cytotoxic: at 62.6 µM (top of the series) unless noted; note: potency is the fitted concentration of half-maximal effect; nearly all actives have a fitted effect of over 45% in size
Method in brief: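 In GeneBLAzer FXR-UAS-bla HEK 293T cells, compounds act for 16 h at 37 C. Cell viability is then scored in the reporter wells by CellTiter-Glo, 30 min at RT, luminescence.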

[4] = qHTS assay to identify small molecule agonists of the endoplasmic reticulum stress response signaling pathway (AID 1159516; active = well fitted activation curve with a large enough effect in the signal ratio in the repeat runs, not every such curve was filed as active; inconclusive = weak or mixed curves, or effect the other way; the % refers to the signal ratio; note: potency is the fitted concentration of half-maximal effect); conditions: ESRE-bla HeLa, ER stress beta-lactamase reporter, 5 h; activation: at 61 µM (top of the series) unless noted
Method in brief: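 ER stress element reporter (bla) in HeLa. 1,500 cells/well, overnight attachment; 5 hr compound; 2 hr RT substrate; dual-emission fluorescence.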

[5] = qHTS assay to identify small molecule antagonists of the peroxisome proliferator-activated receptor gamma (PPARg) signaling pathway - cell viability counter screen (AID 743194); conditions: PPARg-bla HEK293H viability, CellTiter-Glo luminescence, 17 h; Potency: co-treated with 50 nM rosiglitazone unless noted; activity change, negative = cytotoxicity: at 62.6 µM (top of the series), co-treated with 50 nM rosiglitazone unless noted; note: % is set by controls: 0 for no effect and ±100 for the full control effect; nearly all actives have a fitted effect of over 55% in size
Method in brief: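 Cytotoxicity counter screen in PPARg-bla HEK293H cells, same wells as reporter assay. Compounds plus 50 nM rosiglitazone (final) for 17 h at 37 C, then viability read by CellTiter-Glo luminescence.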

[6] = target: Bile acid receptor (Homo sapiens) (UniProt Q96RI1); assay: qHTS assay to identify small molecule antagonists of the farnesoid-X-receptor (FXR) signaling pathway (AID 743217; active = well fitted inhibition curve with a large enough effect in the signal ratio in the repeat runs, not every such curve was filed as active; inconclusive = weak or mixed curves, or effect the other way; inactive = no such curve, though single readings can be large or run the other way; the % refers to the signal ratio; note: % is set by controls: 0 for no effect and ±100 for the full control effect); conditions: HEK293T FXR-UAS-bla, beta-lactamase ratio, CDCA-stimulated, 16 h; activity change, negative = inhibition: at 62.6 µM (top of the series) unless noted
Sequence of UniProt Q96RI1 (Q96RI1 whole entry, looked up): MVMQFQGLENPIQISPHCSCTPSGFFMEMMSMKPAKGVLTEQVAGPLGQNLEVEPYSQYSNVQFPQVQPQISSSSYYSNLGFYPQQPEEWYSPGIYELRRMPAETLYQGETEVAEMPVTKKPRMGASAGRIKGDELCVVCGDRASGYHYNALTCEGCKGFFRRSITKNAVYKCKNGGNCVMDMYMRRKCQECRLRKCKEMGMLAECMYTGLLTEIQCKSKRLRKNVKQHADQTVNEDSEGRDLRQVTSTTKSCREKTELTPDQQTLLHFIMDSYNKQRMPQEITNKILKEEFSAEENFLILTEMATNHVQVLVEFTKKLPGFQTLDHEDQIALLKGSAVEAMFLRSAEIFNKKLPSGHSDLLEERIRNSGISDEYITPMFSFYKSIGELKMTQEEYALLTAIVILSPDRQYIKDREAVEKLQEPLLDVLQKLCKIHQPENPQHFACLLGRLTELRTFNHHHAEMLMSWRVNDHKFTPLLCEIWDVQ
Method in brief: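 Beta-lactamase reporter under UAS control in HEK 293T cells; compound exposure 16 h at 37 °C in the presence of chenodeoxycholic acid (50 uM final); signal from B/G FRET substrate after 2 h at room temperature.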

[7] = target: Vitamin D3 receptor (Homo sapiens) (UniProt P11473); assay: qHTS assay to identify small molecule antagonists of the vitamin D receptor (VDR) signaling pathway (AID 743223; active = well fitted inhibition curve with a large enough effect in the signal ratio in the repeat runs, not every such curve was filed as active; inconclusive = weak or mixed curves, or effect the other way; inactive = no such curve, though single readings can be large or run the other way; the % refers to the signal ratio; note: % is set by controls: 0 for no effect and ±100 for the full control effect); conditions: VDR-UAS-bla HEK293T, beta-lactamase FRET ratio, 16 h; activity change, negative = inhibition: at 61 µM (top of the series) unless noted
Sequence of UniProt P11473 (P11473 whole entry, looked up): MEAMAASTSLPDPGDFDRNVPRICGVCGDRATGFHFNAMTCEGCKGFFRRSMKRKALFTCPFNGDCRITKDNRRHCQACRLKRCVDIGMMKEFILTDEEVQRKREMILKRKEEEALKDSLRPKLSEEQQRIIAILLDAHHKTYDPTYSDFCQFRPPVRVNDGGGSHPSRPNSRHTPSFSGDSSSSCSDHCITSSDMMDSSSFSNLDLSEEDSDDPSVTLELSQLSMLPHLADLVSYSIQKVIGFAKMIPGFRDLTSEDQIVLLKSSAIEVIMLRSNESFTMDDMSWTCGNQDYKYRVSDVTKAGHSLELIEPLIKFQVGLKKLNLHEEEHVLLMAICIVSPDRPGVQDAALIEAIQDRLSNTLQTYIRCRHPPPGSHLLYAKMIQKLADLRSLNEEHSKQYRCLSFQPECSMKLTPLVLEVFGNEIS
Method in brief: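 Beta-lactamase activity in VDR-bla cells is measured by FRET substrate fluorescence (2 h, room temperature) after cells spend 16 h at 37C with test compound and 3 nM final 1alpha,25-dihydroxyvitamin D3.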

[8] = qHTS assay to identify small molecule agonists of the vitamin D receptor (VDR) signaling pathway - cell viability counter screen (AID 743224); note: % is set by controls: 0 for no effect and ±100 for the full control effect; nearly all actives have a fitted effect of over 50% in size
Method in brief: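 VDR-bla cell line, quantitative HTS format; 16 h compound incubation (37C, 5% CO2); ATP-based CellTiter-Glo luminescence measured in the reporter assay wells.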

[9] = qHTS assay for small molecule activators of the heat shock response signaling pathway (AID 743210; active = well fitted activation curve with a large enough effect in the signal ratio in the repeat runs, with a control signal flat, not every such curve was filed as active; inconclusive = weak or mixed curves; the % refers to the signal ratio; note: potency is the fitted concentration of half-maximal effect); conditions: HeLa HSE-bla reporter, beta-lactamase ratio, 5 h; activation: at 62.6 µM (top of the series)
Method in brief: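 HSE-bla HeLa cells (beta-lactamase reporter under heat shock response elements), plated overnight, then exposed to compounds 5 h at 37 C; LiveBLAzer B/G FRET substrate added, 2.5 h at room temperature, fluorescence intensity read.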

[10] = qHTS assay to identify small molecule agonists of the peroxisome proliferator-activated receptor delta (PPARd) signaling pathway - cell viability counter screen (AID 743211); conditions: PPARd-bla HEK293H viability, CellTiter-Glo luminescence, 17 h; activity change, negative = cytotoxicity: at 62.6 µM (top of the series) unless noted; note: % is set by controls: 0 for no effect and ±100 for the full control effect; nearly all actives have a fitted effect of over 55% in size
Method in brief: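 Following 5 h plating at 37 C and 5% CO2, PPARd UAS-bla HEK293H cells took up test compounds for 17 h. Viability was quantified by luminescence 30 min after CellTiter-Glo addition at room temperature.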

[11] = target: Vitamin D3 receptor (Homo sapiens) (UniProt P11473); assay: qHTS assay to identify small molecule agonists of the vitamin D receptor (VDR) signaling pathway (AID 743222; calls by dose curve; note: % is set by controls: 0 for no effect and ±100 for the full control effect); conditions: HEK293T VDR-UAS-bla, beta-lactamase FRET ratio, 16 h; activation: at 63.5 µM (top of the series) unless noted
Method in brief: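 Agonist activity measured in VDR-bla reporter cells. Exposure 16 h, 37C, 5% CO2; detection by B/G FRET substrate, 2 h RT.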

[12] = qHTS assay to identify small molecule antagonists of the farnesoid-X-receptor (FXR) signaling pathway - cell viability counter screen (AID 743221; active = well fitted cell-killing curve with a large enough effect in the repeat runs, not every such curve was filed as active; inconclusive = weak or mixed curves, or effect the other way; inactive = no such curve, though single readings can be large or run the other way; note: % is set by controls: 0 for no effect and ±100 for the full control effect; nearly all actives have a fitted effect of over 50% in size); conditions: FXR-bla HEK293T viability, CellTiter-Glo luminescence, 16 h; activity change, negative = cytotoxicity: at 62.6 µM (top of the series) unless noted
Method in brief: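 Compound effects on cell number were measured as CellTiter-Glo luminescence in HEK 293T cells expressing FXR-UAS-bla, after 16 h at 37 C with 50 uM CDCA (final).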

[13] = target: Peroxisome proliferator-activated receptor delta (Homo sapiens) (UniProt Q03181); assay: qHTS assay to identify small molecule antagonists of the peroxisome proliferator-activated receptor delta (PPARd) signaling pathway (AID 743215; active = well fitted inhibition curve with a large enough effect in the signal ratio in the repeat runs, not every such curve was filed as active; inconclusive = weak or mixed curves, or effect the other way; inactive = no such curve, though single readings can be large or run the other way; the % refers to the signal ratio;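 note: cells stimulated with agonist L165041 at 300 nM final during compound exposure; % is set by controls: 0 for no effect and ±100 for the full control effect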); conditions: HEK293H PPARd-UAS-bla, beta-lactamase FRET ratio, antagonist, 17 h; ratio activity, negative = inhibition: at 62 µM (top of the series) unless noted
Sequence of UniProt Q03181 (Q03181 whole entry, looked up): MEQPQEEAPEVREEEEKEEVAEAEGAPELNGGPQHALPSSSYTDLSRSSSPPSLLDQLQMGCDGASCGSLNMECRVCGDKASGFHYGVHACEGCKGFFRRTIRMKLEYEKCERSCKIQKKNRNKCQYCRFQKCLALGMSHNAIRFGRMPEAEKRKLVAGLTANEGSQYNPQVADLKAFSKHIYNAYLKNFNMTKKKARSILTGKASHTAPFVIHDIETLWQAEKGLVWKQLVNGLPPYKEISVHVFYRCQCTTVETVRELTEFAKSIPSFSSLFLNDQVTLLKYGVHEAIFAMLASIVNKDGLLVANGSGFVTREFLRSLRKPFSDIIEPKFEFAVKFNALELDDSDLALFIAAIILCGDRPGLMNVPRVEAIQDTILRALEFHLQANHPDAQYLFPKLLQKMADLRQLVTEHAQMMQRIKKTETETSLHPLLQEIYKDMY
Method in brief: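 Antagonist-mode beta-lactamase reporter screen: HEK293H cells with UAS-bla under PPARd control, stimulated by 300 nM L165041 (final) alongside test compound for 17 h at 37 C, then FRET fluorescence after 2 h substrate incubation.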

[14] = qHTS assay for small molecule agonists of the antioxidant response element (ARE) signaling pathway - cell viability counter screen (AID 743203; calls by dose curve; note: potency is the fitted concentration of half-maximal effect; nearly all actives have a fitted effect of over 55% in size)
Method in brief: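 Cells (ARE-bla HepG2, 2,000/well) receive DMSO-dissolved compounds after a 5 hrs rest. Plates incubate 16 hrs at 37C/5% CO2. CellTiter-Glo luminescence is then recorded after 30 min at room temperature.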

[15] = qHTS assay for small molecule activators of the heat shock response signaling pathway - cell viability counter screen (AID 743209); conditions: HSE-bla HeLa viability, CellTiter-Glo luminescence, 5 h; activity change, negative = cytotoxicity: at 62.6 µM (top of the series) unless noted; note: potency is the fitted concentration of half-maximal effect; nearly all actives have a fitted effect of over 50% in size
Method in brief: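 Quantitative HTS format, Tox21 10K library. HeLa cells carrying an HSE-driven beta-lactamase reporter were treated 5 h at 37 C, then assessed for viability by CellTiter-Glo luminescence.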

[16] = target: Peroxisome proliferator-activated receptor delta (Homo sapiens) (UniProt Q03181); assay: qHTS assay to identify small molecule agonists of the peroxisome proliferator-activated receptor delta (PPARd) signaling pathway (AID 743212; calls by dose curve; note: % is set by controls: 0 for no effect and ±100 for the full control effect); conditions: HEK293H PPARd-UAS-bla, beta-lactamase FRET ratio, 17 h; activation: at 62.6 µM (top of the series) unless noted
Method in brief: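 GeneBLAzer UAS-bla HEK293H cells carrying a PPARδ construct were exposed to compounds at 37 °C. Beta-lactamase activity was read by FRET fluorescence after 2 h at room temperature with LiveBLAzer B/G substrate.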
Tags give direction and shape of the fitted curve or compound fluorescence and quenching.

For ClCCOCCCl, the Potency [1] was “inactive”, the Potency [2] was inconclusive: 12.3 µM [cytotoxic, single point] and the Potency [3] was inconclusive: 0.0277 µM [rising, partial curve]. For the same compound, the Potency [4] was “inactive”.

For CCCCCC[N+](=O)[O-], the activation [1] was inconclusive: -3.99% [at 94.8 µM] and the Potency [4] was “inactive”.

For O=C(NC(=O)c1ccccc1Cl)Nc1ccc(OC(F)(F)F)cc1, the Potency [5] was “inactive”, the activation [1] was inconclusive: -2.8% and the activity change, negative = inhibition [6] was inconclusive: 12.2%. For the same compound, the Potency [7] was “inactive”, the Potency [8] was “inactive” and the Potency [4] was inconclusive: 0.0012 µM [inhibitor, full curve].

With COP(=S)(OC)Oc1ccc([N+](=O)[O-])c(C)c1 the activation [1] was inconclusive: -1.39%, the Potency [9] was inconclusive: 16.4 µM and the Potency [10] was “inactive”. For the same compound, the activation [11] was inconclusive: 23.1% and the Potency [4] was inconclusive: 21.9 µM [falling, partial curve, poor fit].

With C=C(C)C(=O)OCC1CO1 (centres undefined) the activation [1] was inconclusive: 16.9%, the Potency [9] was inconclusive: 57.6 µM [activator] and the Potency [2] was inconclusive: 61.7 µM [cytotoxic, partial curve, poor fit]. The activity change, negative = cytotoxicity [12] was inconclusive: 10.6% and the Potency [4] was inconclusive: 6.1 µM [falling, single point].

In the case of C#CCO, the Potency [1] is reported as “inactive” and the Potency [4] is reported as “inactive”.

For CCCN(CC1CC1)c1c([N+](=O)[O-])cc(C(F)(F)F)cc1[N+](=O)[O-], the Potency [1] was “inactive”, the Potency [9] was “inactive” and the Potency [13] was “inactive”. The Potency [8] was “inactive” and the activation [4] was inconclusive: -3.15%.

In the case of O.O.O.O.O.O.O=S(=O)([O-])[O-].[Ni+2], the activation [1] is reported as inconclusive: 16.2%, the Potency [2] is reported as “inactive” and the Potency [4] is reported as “inactive”.

For Clc1cc(C(Cl)(Cl)Cl)cnc1Cl, the Potency [1] was inconclusive: 9.69 µM [rising, partial curve, poor fit], the Potency [14] was active: 61.1 µM and the Potency [15] was active: 49 µM. The Potency [9] was inconclusive: 54.9 µM [single point], the Potency [10] was “inactive” and the activation [16] was inconclusive: 5.12%. For the same compound, the Potency [4] was inconclusive: 7.76 µM [rising, full curve].
